# Results from paper PMC4336329 (PLoS ONE, 2015).
# Screen size: about 310,000 compounds; about 14,000 (4.5%) showed an effect of 50% or more. Effects have a minus sign here. The list shows a part of the results.
# Biological target: human ether-à-go-go-related gene (hERG) potassium channel (human, UniProt Q12809)
# Test: primary screen, population patch clamp on CHO cells stably expressing hERG
# 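Further: peak tail current of the secondary pulse compared with the same well before compound.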
# human ether-à-go-go-related gene (hERG) potassium channel, sequence (Q12809 whole entry, looked up): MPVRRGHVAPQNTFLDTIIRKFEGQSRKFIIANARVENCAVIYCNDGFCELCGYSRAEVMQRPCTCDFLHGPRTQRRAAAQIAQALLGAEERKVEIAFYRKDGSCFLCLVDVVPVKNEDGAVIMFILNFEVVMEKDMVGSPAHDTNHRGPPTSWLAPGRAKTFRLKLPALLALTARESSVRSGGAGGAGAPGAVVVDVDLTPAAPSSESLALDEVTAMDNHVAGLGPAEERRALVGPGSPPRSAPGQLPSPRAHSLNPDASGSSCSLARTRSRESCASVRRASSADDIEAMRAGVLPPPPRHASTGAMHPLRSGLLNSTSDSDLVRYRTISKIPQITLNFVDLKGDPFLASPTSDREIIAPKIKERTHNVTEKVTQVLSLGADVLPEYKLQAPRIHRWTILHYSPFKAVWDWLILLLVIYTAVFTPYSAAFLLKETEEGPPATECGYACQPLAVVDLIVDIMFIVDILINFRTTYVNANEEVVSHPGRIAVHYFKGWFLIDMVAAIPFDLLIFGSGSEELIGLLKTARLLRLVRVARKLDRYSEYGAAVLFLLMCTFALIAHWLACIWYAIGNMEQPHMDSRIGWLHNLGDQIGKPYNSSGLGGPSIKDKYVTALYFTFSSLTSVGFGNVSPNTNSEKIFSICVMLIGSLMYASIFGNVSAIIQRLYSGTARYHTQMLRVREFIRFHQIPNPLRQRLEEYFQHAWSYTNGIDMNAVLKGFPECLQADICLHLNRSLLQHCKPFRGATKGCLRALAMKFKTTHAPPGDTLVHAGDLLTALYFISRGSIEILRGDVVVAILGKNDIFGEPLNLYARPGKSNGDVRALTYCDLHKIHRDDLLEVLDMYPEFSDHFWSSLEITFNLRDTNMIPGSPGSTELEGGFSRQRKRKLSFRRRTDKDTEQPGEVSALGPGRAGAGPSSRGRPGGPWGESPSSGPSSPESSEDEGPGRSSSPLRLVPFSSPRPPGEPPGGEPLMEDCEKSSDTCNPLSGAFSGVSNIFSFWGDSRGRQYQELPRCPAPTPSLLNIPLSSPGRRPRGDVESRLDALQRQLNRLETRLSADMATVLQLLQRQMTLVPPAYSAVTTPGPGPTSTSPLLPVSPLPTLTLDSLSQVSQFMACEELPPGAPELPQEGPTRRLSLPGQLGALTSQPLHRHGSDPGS
row,Structure (SMILES),"hERG current change (%, negative = inhibition) at 10uM [%]"
1,C=C(C)CC1N(c2cccc(OC)c2)C(=O)[C@@H]2C(C(=O)O)[C@H]3C=C[C@@]12O3 (stereo partly drawn),2.7
2,COc1ccc2[nH]c(C(=O)N/N=C/c3ccc(OC)c(O)c3)cc2c1,8.9
3,CNc1nc2cc([N+](=O)[O-])c([N+](=O)[O-])cc2nc1NC,-24.2
4,CN1C=CC2=C(C#N)C(N)C(C#N)(C#N)[C@H](c3ccccc3)[C@H]2C1 (stereo partly drawn),-4.67
5,COc1ccccc1NC(=O)N1CCN(c2cccc(C(F)(F)F)c2)CC1,-76.6
6,O=C1CCCC(O)=C1N=Nc1ccc(Cl)c(Cl)c1,11.5
7,O=C(COC(=O)C1(c2ccccc2F)CCCC1)Nc1ncc(C(F)(F)F)cc1Cl,-10.1
8,COC(=O)c1ccc(C)c(NC(=O)CCc2ccc(OC)c(OC)c2)c1,6.37
9,c1ccc2c3n(nc2c1)CCCO3,13.3
10,CCN(CC)c1ccc(/C=N/NC(=S)NCc2ccccc2)c(O)c1,12
11,COc1ccc(-c2oc3ccc(-c4ccc(OC)nc4)cc3c2C#CC2(O)CCCCC2)cc1,-7.96
12,Cc1ccc(C)c(NC(=O)CN(C)C(=O)c2ccc(-n3cncn3)c([N+](=O)[O-])c2)c1,-26.7
13,CCc1cc(=O)oc2cc(OCC(=O)NCCCN3CCCC3=O)c(Cl)cc12,13.2
14,Cc1ccc2nc(-c3ccncc3)cc(C(=O)N3CCC4(CC3)OCCO4)c2c1,-12.8
15,CN(C)c1nnnn1Cc1ccccc1,12.1
16,CN(C)P1(N(C)C)=Nc2c(c(N)nn2C)C(c2ccccc2)=N1,-6.87
17,C/C(=N\Nc1ccccc1)c1cc2ccccc2oc1=O,-2.09
18,NC1=NC[C@H](Cc2ccccc2)N1CC1CCCCC1,0.158
19,O=C(Nc1cc(S(=O)(=O)N2CCCCC2)ccc1Cl)c1ccncc1,-50.2
20,COc1ccc(Cl)cc1NC(=O)CN(C)C(=O)c1ccc(N2CCCCC2)c([N+](=O)[O-])c1,-18.8
21,COC(=O)CCCC(=O)N1CCCC(CCC(=O)NCc2ccc(F)c(F)c2)C1 (stereo not drawn),0.17
22,Cc1occc1-c1nnc(SCC(=O)N2CCN(c3ccccc3)CC2)n1C,-27.8

row,Structure (SMILES),"hERG current change (%, negative = inhibition) at 10uM [%]"
1,COCCSc1ccccc1C(=O)N1CCc2ccccc2C1,-6.61
2,O=C(COC(=O)C1(c2ccc(Cl)cc2)CCCC1)NCc1ccco1,-12.9
3,CCCN(CCC)S(=O)(=O)c1ccc(NC(=O)Cc2cccs2)cc1,-11.3
4,Nc1c(C=C2C=CC(=O)C=C2)c(=O)nc2sc(CC(=O)N3CCOCC3)nn12,23.2
5,Fc1ccc(Oc2ccc3nnc(C(F)(F)F)n3n2)cc1,3.53
6,O=C(Nc1ccccc1O)c1ccccc1O,-6.23
7,CCc1nc(Nc2ccccc2F)c2oc3ccccc3c2n1.Cl,6.04
8,COC(=O)c1ccccc1N=Nc1c(N)[nH][nH]c1=O,-0.102
9,CCC(C)NC(=O)CS(=O)(=O)Cc1nc(-c2cccc(OC)c2)oc1C (stereo not drawn),4.03
10,COc1ccc([C@@H]2[C@@H]3C(=O)N(C(C)(C)C)C(=O)[C@@H]3[C@]3(Cc4ccccc4)C(=O)N(c4ccc(C(F)(F)F)cc4)C(=O)N23)cc1,-8.45
11,CC(C)(C)NC(=S)Nc1ccc(Br)cc1,-2.45
12,Cc1cc2[nH]c3c(c[n+](C)c4ccccc34)c2cc1C.[I-],-77.8
13,O=S(=O)(Nc1ccc(C(F)(F)F)cc1)c1cccs1,-16.5
14,CN(CCC#N)C(=O)COC(=O)c1cc(Cl)cc(Cl)c1N,-1.24
15,O=C(Nc1ccc2oc(-c3ccccc3F)nc2c1)c1ncn[nH]1,3.18
16,O=C(CCN1CCN(c2ccc(F)cc2)CC1)Nc1ccccc1F,-43
17,COc1ccc2cc3cc(C(=O)NCCCN4CCC(C)CC4)oc3nc2c1,-58.5
18,COCCNC(=O)C(c1ccco1)N(Cc1ccc(OC)cc1)C(=O)Cn1nnc2ccccc21 (stereo not drawn),-11
19,Cc1ccc(S(=O)(=O)N[C@@H](C)C(=O)OCC(=O)N2c3ccccc3NC(=O)C2(C)C)cc1,0.585
20,COc1ccc(OC)c(N(CC(=O)N2CCN(c3cc(Cl)ccc3C)CC2)S(C)(=O)=O)c1,-0.306
21,N=C1/C(=C/c2ccco2)C(=O)N=C2SC(CC(=O)N3CCCC3)=NN12,23.4
22,C[C@H](NC(=O)c1nc[nH]c1C(=O)N[C@@H](CCCCNC(=O)OC(C)(C)C)C(=O)OC(C)(C)C)c1ccccc1,9.69

row,Structure (SMILES),"hERG current change (%, negative = inhibition) at 10uM [%]"
1,O=c1c2cn[nH]c2[nH]c(=S)n1-c1ccccc1Cl,24
2,Cc1cc(C)c(S(=O)(=O)NCCCn2ccnc2)c(C)c1,-15.1
3,CC(C)=CC(=O)OCC(=O)Nc1ccccc1Cl,5.48
4,CCOC(=O)N1CCN(c2cc(=O)n(-c3ccc(Br)cc3)c(=O)[nH]2)CC1,6.71
5,NS(=O)(=O)c1cccc(NC(=O)CSc2nn(-c3ccccc3)c(=S)s2)c1,-2.29
6,CC(=O)Nc1ccc2c(c1)CCCC2=O,11.7
7,Cc1cccc(Oc2ncnc3onc(C)c23)c1C,4.88
8,COC(=O)/C=C1\SC(=Nc2ccccc2)NC1=O,9.64
9,COc1cccc(CNC(=O)c2cccnc2Sc2ccccc2)c1,15.7
10,COc1ccc(CCNC(=O)CSc2nc3[nH]c(=O)cc(O)c3s2)cc1,3.77
11,CN1CCN(C(=O)OC2c3nccnc3C(=O)N2c2ccc(Cl)cn2)CC1 (stereo not drawn),13.9
12,O=C(CCCSc1nc2ccccc2s1)Nc1nccs1,-9.09
13,O=C(O)CNC(=O)c1ccccc1F,1.74
14,N#CC12COC3(CCCCC3C1(C#N)C#N)OC2=N (stereo not drawn),11
15,CCCCOC(=O)C(C)Sc1n[nH]c(=O)[nH]c1=O (stereo not drawn),-5.93
16,C/C(=N/N1CCN(c2ccccc2)CC1)c1cccc([N+](=O)[O-])c1,14.9
17,C#CCOCCOCCOCCNc1nc(N2CCOCC2)nc(N2CCN(C(=O)CCCCCCCCCCNC(=O)[C@@H](CCC(=O)O)n3cc(CCCCCN)nn3)CC2)n1,-10.9
18,CCN(CC)S(=O)(=O)c1ccc2nc(SC)sc2c1,-15.3
19,CN(CCC#N)C(=O)COC(=O)c1ccc2[nH]c3c(c2c1)CCCC3,15.1
20,COC(=O)c1ccccc1NC(=O)CN(c1cc(OC)ccc1OC)S(C)(=O)=O,-5.81
21,COc1ccc(Cc2noc(CN(C)C3CC(C)(C)NC(C)(C)C3)n2)cc1OC,16.7
22,CCn1cc(-c2cc(C(=O)O)c3ccccc3n2)c(C)n1,24.3

row,Structure (SMILES),"hERG current change (%, negative = inhibition) at 10uM [%]"
1,CCOC(=O)N1CCC(N2CC34C=CC(O3)C(C(=O)Nc3ccc(F)cc3)C4C2=O)CC1 (stereo not drawn),-12.8
2,CC1(C)C2CCC1(C)C(OC(=O)CC(=O)O)C2 (stereo not drawn),15.2
3,COc1cccc(OC)c1C1=NCC(=O)Nc2c1oc1ccc(Br)cc21,-37.3
4,O=C(N/N=C/C(Br)=C/c1ccccc1)c1ccc([N+](=O)[O-])cc1,18.6
5,CCCCOc1cccc(C(=O)NNC(=S)NC2CCCCC2)c1,13.5
6,COC(=O)C1CCN(C(=O)Cc2ccccc2OC)CC1,19.2
7,COc1ccc(C(CNC(=O)c2ccc3c(c2)C(=O)N(CCC(C)C)C3=O)N2CCOCC2)cc1 (stereo not drawn),-4.04
8,O=C(CC12CC3CC(CC(Br)(C3)C1)C2)NCc1ccccc1,-30.9
9,Cc1nnc(NC(=O)c2oc3ccccc3c2C)s1,12.9
10,O=C(NC1CCCC1)c1nc2c(nnn2Cc2ccccc2Cl)c(=O)[nH]1,2.2
11,CCOc1ccc(NC(=O)CCC(=O)N/N=C/c2ccc3c(c2)OCO3)cc1,14.8
12,CCN1CCCC1CNC(=O)C(=O)Nc1cccc(OC)c1 (stereo not drawn),-1.67
13,Cc1ccc(NS(=O)(=O)c2ccc3c(c2)OCCCO3)cc1S(=O)(=O)N1CCOCC1,-6.02
14,CN(c1nc2ccccc2nc1Cl)S(=O)(=O)c1ccccc1,-29.8
15,COc1ccc(-n2nc(C(=O)NCc3ccco3)c3c4ccccc4n(C)c3c2=O)cc1,18.1
16,O=C(N/N=C/c1cc([N+](=O)[O-])ccc1O)c1ccc2c(c1)OCCO2,0.0931
17,CCCn1c(SCC(=O)Nc2ccc3c(c2)OCO3)nc2c1c(=O)n(C)c(=O)n2C,6.38
18,CC(/C=C1\N=C(SCc2ccccc2)SC1=O)=C\c1ccccc1,12
19,CCOc1ccc(NC(=O)CSc2nnc(COc3c(C)cccc3C)o2)cc1,11.9
20,CCCc1nc2c(=O)n(C)c(=O)[nH]c2n1CCC,1.89
21,C[C@@H]1C(=O)O[C@@H]2[C@H](O)C34[C@@H]5OC(=O)C3(O[C@H]3OC(=O)[C@H](O)C34[C@H](C(C)(C)C)[C@H]5O)[C@@]12O (stereo partly drawn),35.1
